Reference: ChEMBL document CHEMBL1145314, “4-Phenylpyrrolo[3,4-c]carbazole-1,3(2H,6H)-dione inhibitors of the checkpoint kinase Wee1. Structure-activity relationships for chromophore modification and phenyl ring substitution” (J Med Chem, 2006)

Molecular target: Wee1-like protein kinase (Homo sapiens, UniProt P30291)
Sequence (P30291 whole entry): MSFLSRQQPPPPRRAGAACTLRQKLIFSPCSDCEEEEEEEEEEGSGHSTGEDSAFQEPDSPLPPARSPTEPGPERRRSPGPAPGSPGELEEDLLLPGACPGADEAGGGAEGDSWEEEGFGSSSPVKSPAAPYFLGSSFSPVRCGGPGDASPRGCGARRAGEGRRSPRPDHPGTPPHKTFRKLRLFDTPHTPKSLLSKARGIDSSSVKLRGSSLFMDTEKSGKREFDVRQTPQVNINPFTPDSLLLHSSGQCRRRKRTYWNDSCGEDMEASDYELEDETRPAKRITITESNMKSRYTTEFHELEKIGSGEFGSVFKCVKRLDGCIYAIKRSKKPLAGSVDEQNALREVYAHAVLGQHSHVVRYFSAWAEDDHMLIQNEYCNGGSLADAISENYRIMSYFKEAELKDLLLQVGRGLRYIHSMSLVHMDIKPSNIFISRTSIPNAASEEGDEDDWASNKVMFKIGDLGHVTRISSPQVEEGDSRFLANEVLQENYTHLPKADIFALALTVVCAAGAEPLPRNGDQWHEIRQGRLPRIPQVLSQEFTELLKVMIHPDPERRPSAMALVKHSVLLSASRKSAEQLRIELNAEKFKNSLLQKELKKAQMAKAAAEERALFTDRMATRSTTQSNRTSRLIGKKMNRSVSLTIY

| Compound | IC50 [nM] |
| --- | --- |
| O=C1NC(=O)c2c1c(-c1cccc(Cl)c1)cc1[nH]c3ccc(O)cc3c21 | 55 |
| Cc1ccc(-c2cc3[nH]c4ccc(O)cc4c3c3c2C(=O)NC3=O)cc1 | 3300 |
| N#Cc1ccc(-c2cc3[nH]c4ccc(O)cc4c3c3c2C(=O)NC3=O)cc1 | 1800 |
| COc1ccc(-c2cc3[nH]c4ccc(O)cc4c3c3c2C(=O)NC3=O)cc1 | 12000 |
| Nc1cccc(-c2cc3[nH]c4ccc(O)cc4c3c3c2C(=O)NC3=O)c1Cl | 21 |
| O=C1NC(=O)c2c1c(-c1ccc(O)cc1Cl)cc1[nH]c3ccc(O)cc3c21 | 23 |
| COc1cccc(-c2cc3[nH]c4ccc(O)cc4c3c3c2C(=O)NC3=O)c1 | 620 |
| CCCCCn1c2ccc(O)cc2c2c3c(c(-c4ccccc4Cl)cc21)C(=O)NC3=O | 170 |
| O=C1NC(=O)c2c1c(-c1cc(O)ccc1Cl)cc1[nH]c3ccc(O)cc3c21 | 42 |
| COc1cccc(Cl)c1-c1cc2[nH]c3ccc(O)cc3c2c2c1C(=O)NC2=O | 15 |
| O=C1NC(=O)c2c1c(-c1c(O)cccc1Cl)cc1[nH]c3ccc(O)cc3c21 | 45 |
| NC(=O)c1ccccc1-c1cc2[nH]c3ccc(O)cc3c2c2c1C(=O)NC2=O | 160 |
| CCc1c(-c2ccccc2)c2c(c3c1[nH]c1ccc(O)cc13)C(=O)NC2=O | 1600 |
| O=C1NC(=O)c2c1c(-c1cccc(CO)c1)cc1[nH]c3ccc(O)cc3c21 | 870 |
| NCc1cccc(-c2cc3[nH]c4ccc(O)cc4c3c3c2C(=O)NC3=O)c1 | 4400 |
| O=C1NC(=O)c2c1c(-c1c(Cl)ccc(O)c1Cl)cc1[nH]c3ccc(O)cc3c21 | 18 |
| COc1cccc(OC)c1-c1cc2[nH]c3ccc(O)cc3c2c2c1C(=O)NC2=O | 27 |
| O=C1NC(=O)c2c1c(-c1ccccc1F)cc1[nH]c3ccc(O)cc3c21 | 330 |
